Hit rate of the full screen: of about 45,000 compounds, about 65 (0.1%) were called active. Calls come from the whole dose curve; as a rule, active = well fitted activation curve with a large enough effect; inconclusive = small, poorly fitted or top-dose-only effect; inactive = no such curve, though single readings can be large or run the other way. Some of the results follow.

UniProt P54803, sequence (P54803 whole entry, looked up): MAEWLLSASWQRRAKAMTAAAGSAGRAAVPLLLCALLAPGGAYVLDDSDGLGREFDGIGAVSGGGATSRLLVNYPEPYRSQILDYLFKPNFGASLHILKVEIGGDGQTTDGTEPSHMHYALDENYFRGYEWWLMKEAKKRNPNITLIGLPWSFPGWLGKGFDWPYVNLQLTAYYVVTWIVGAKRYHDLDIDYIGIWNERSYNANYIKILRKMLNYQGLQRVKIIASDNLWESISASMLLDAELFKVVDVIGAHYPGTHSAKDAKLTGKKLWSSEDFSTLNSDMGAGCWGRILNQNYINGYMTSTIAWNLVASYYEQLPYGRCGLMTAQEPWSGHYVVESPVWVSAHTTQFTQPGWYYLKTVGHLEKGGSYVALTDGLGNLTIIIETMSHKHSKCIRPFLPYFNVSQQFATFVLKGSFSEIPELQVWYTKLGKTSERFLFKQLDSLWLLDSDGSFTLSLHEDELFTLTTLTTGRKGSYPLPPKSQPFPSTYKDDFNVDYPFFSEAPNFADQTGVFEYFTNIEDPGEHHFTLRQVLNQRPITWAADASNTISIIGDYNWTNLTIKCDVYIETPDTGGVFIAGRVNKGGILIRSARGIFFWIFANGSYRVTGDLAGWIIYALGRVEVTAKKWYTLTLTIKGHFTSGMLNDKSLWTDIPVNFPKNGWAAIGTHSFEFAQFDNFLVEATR

The target of this assay is Galactocerebrosidase (Homo sapiens) (UniProt P54803). In words: A Novel Cell-Based Assay to Identify Small Molecules for B -Galactocerebrosidase. Note: 0% is about no effect; nearly all actives have a fitted effect of over 65% in size. As to conditions: 145M-Twi-hGALC-G270D cells (Twitcher mouse brain line with human GALC G270D), HMU-beta-Gal fluorescence, 48 h; series mostly up to 57.5 µM; activation: at the top concentration. Summed up:
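Fluorogenic HMU-b-Gal hydrolysis (0.1 mM final, pH 5.2 citrate-phosphate with 1 mg/mL sodium taurocholate; carbonate stop buffer) measures mutant GALC activity after compound treatment of live 145M-Twi Twitcher brain cells stably carrying human GALC-G270D, with wild-type GALC line alongside; activation sought.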
`O=C(CN1CCN(c2ccc(Cl)cc2)CC1)Nc1ccc(F)cc1F`: the “activation” value is inactive: -15.3%.

Take `Cc1cccn2c(=O)c(/C=C(\C#N)c3nc4ccccc4n3C)c(Oc3ccc(Br)cc3)nc12`: the “activation” value is inactive: -11.2%.

For the compound `COc1ccc(CNC(=O)CCn2nc(C)c3c(C)n(-c4ccccc4)nc3c2=O)cc1OC`, the “activation” value was inactive: -11.4%. As for `Cc1cccc(C)c1Nc1c(-c2ccsc2)nc2ccccn12`, the figure is inactive: -8.7%; as for `COc1ccc(CNC(=O)C(=O)NCC(c2cccs2)S(=O)(=O)c2ccc(F)cc2)cc1` (centres undefined), inactive: 3.06%.

In the case of `CCOCCCn1c(=N)c(S(=O)(=O)c2ccc(C)cc2)cc2c(=O)n3cccc(C)c3nc21`, the “activation” value was inactive: -2.35%. Then `COc1ccc(CN(CCC(c2ccc3c(c2)OCO3)c2ccccc2OC)C(C)=O)cc1` (centres undefined), with inactive: -36.4%; and `CCOc1ccc(N(CC(=O)Nc2ccc(F)cc2F)S(=O)(=O)c2c(C)[nH]c(=O)[nH]c2=O)cc1`, with inactive: -7.29%; and `CN1C(=O)c2ccccc2Sc2ccc(NC(=O)Nc3ccccc3F)cc21`, with inactive: -20.3%. Then `Cc1ccc(NC(=O)c2c(Nc3ccccc3C)sc(C(=O)c3ccccc3)c2N)cc1`, with inactive: 3.99%. As for `O=C(NCC(c1ccc2c(c1)OCO2)N1CCN(c2ccccc2)CC1)c1ccccc1F` (centres undefined), the figure is inactive: -24%; as for `CC(=O)N1CCCc2cc(S(=O)(=O)N(C)CC(=O)Nc3ccc(F)cc3Cl)ccc21`, inactive: -13.6%. On to `CCOC(=O)c1ccc(OCC2c3cc(OC)c(OC)cc3CCN2C(=O)Cc2ccc(F)cc2)cc1` (centres undefined), for which the “activation” value is inactive: -48.5%. On to `O=S(=O)(NCCc1ccccc1)c1ccc(N2CCCCS2(=O)=O)cc1`, for which the “activation” value was inactive: -20.1%. With `O=c1cc(CN2CCN(S(=O)(=O)c3ccc(Cl)cc3)CC2)nc2sc(-c3ccccc3F)nn12`, the “activation” value is inactive: 6.75%. As for `CCOc1ccc(NS(=O)(=O)c2ccc3[nH]cc(C(=O)NCc4ccco4)c(=O)c3c2)cc1`, the “activation” value is inactive: -2.65%. As for `COc1cccc(OC(=O)CSc2nnc(-c3ccccc3OC)o2)c1`, the figure is inactive: 8.43%; as for `COc1ccc(Cl)cc1NC(=O)c1cc2nc(-c3ccc4c(c3)OCO4)cc(C(F)(F)F)n2n1`, inactive: -10.7%.

On to `Cc1ccc(C)c(N2CCN(c3nc4ccccc4c4nc(CCn5nc(C)cc5C)nn34)CC2)c1`, for which the “activation” value was inactive: -9.42%. As for `Cc1cccc(NC(=O)c2sc3nc4n(c(=O)c3c2C)N=C(c2ccc(F)cc2)CS4)c1C`, the figure is inactive: -6.87%. As for `NC(=O)CC[C@@H](N)C(=O)O`, the figure is inactive: -15.8%; as for `COc1ccc(C(=O)O)cc1Nc1nc2ccc(C)cc2n2cnnc12`, inactive: 2.92%. Consider `Cc1ccc(N2C(=O)CS(=O)(=O)C23C(=O)N(Cc2cccc(F)c2)c2ccccc23)cc1Cl` (centres undefined), for which the “activation” value was inactive: -14.1%. For the compound `O=C(CSc1nc(-c2ccc(Cl)cc2)nc2c1Cc1ccccc1O2)N1CCCCC1`, the “activation” value was inactive: 2.4%. Then `CO/N=C(\C(=O)N[C@@H]1C(=O)N2C(C(=O)O)=C(CSc3nc(=O)c(O)nn3C)CS[C@H]12)c1csc(N)n1`, with inactive: -21%; and `CCCCc1ccc(NC(=O)c2cc3c(=O)n4ccccc4nc3n2C)cc1`, with inactive: -10.3%; and `COC(=O)Cn1c(=O)c2c(nc3n2CCN3c2cccc(C)c2)n(C)c1=O`, with inactive: -10.7%. Then `CCN(CC)S(=O)(=O)c1ccc(NC(=O)[C@H](CSCc2ccccc2)N2Cc3ccccc3C2=O)cc1`, with inactive: -18.7%; and `COc1ccc(NC(=O)CCCc2nc(-c3ccco3)no2)c(OC)c1`, with inactive: -11.9%; and `COc1ccc2nc3sc(C(=O)Nc4ccccc4F)cc3cc2c1`, with inactive: -2.36%. Regarding `Cc1ccc(S(=O)(=O)NCC(c2ccc(N(C)C)cc2)N2CCCC2)cc1` (centres undefined), the “activation” value is inactive: -9%. As for `COc1cc(OC)cc(-c2nc3n(n2)C(c2ccccc2F)C(C(=O)Nc2cccnc2)=C(C)N3)c1` (centres undefined), the figure is inactive: -17%; as for `CCc1ccc(S(=O)(=O)c2cn(C)c3cc(N4CCCCC4C)c(F)cc3c2=O)cc1` (centres undefined), inactive: -10.6%.

Turning to `CCc1ccc(C2C(C(=O)Nc3ccccc3)=C(C)Nc3c(C(=O)Nc4ccc(C)cc4)cnn32)cc1` (centres undefined), the “activation” value is inactive: -16.3%. Then `CCOC(=O)Cn1c(=O)oc2cc(S(=O)(=O)N3CCN(c4ccc(Cl)cc4)CC3)ccc21`, with inactive: 11.6%; and `Cc1cc(C)cc(NC(=O)C2CCCN(c3nnc(C)c4c(C)n(-c5ccccc5)nc34)C2)c1` (centres undefined), with inactive: -6.34%; and `O=C(c1ccco1)N(Cc1cccnc1)c1nc2ccc(F)cc2s1`, with inactive: -12.5%. Take `Cc1ccc(-n2c(CCC(=O)O)ccc2-c2cccs2)cc1C`: the “activation” value is inactive: -6.5%. For `O=C(Nc1ccc(C(F)(F)F)cc1)C1CCC(CNS(=O)(=O)c2cccc3nsnc23)CC1` (centres undefined), the “activation” value is inactive: -17.5%. Then `CCOC(=O)C1CCN(C(c2ccccc2)c2c(O)cc(C)n(Cc3ccco3)c2=O)CC1` (centres undefined), with inactive: -1.26%; and `COc1ccc(OCC(=O)Nc2nnc(S(=O)(=O)N3CCCCCC3)s2)cc1`, with inactive: -16.9%; and `O=C(CSc1nccn1Cc1ccco1)Nc1cccc(F)c1`, with inactive: -7.21%. Then `COc1cc(C2CC(=O)Nc3c2c(=O)[nH]c2nc4ccccc4n32)ccc1O` (centres undefined), with inactive: 8.52%; and `CCc1nn2c(=O)cc(COC(=O)c3ccccc3NC(=O)COc3ccccc3C)nc2s1`, with inactive: -17.5%; and `COc1ccc(-c2nn3c(-c4ccc(OC)cc4)nnc3c3ccccc23)cc1`, with inactive: -6.65%. Then `Cc1ccc2c(c1)cc(C(=O)Nc1ccccc1C)n2C`, with inactive: -6.99%. In the case of `CCC(C)NC(=O)c1cc2c(Cl)nc3ccc(C)cc3c2s1` (centres undefined), the “activation” value is inactive: -5.01%.

As for `CC1(C)C(=O)N(CC(=O)Nc2ccc(Cl)cc2)c2ccccc21`, the “activation” value was inactive: -18.2%.

As for `Cc1nc(N2CCCC2)c2c(C(=O)Nc3cccc(C)c3C)c(C)oc2n1`, the “activation” value was inactive: -7.13%.

`O=C(Nc1ccc(C(=O)OCc2cc(=O)n3nc(C4CC4)sc3n2)cc1)c1ccc(F)cc1`: the “activation” value is inactive: 29.7%. In the case of `CC(=O)Nc1cccc(NC(=O)Cn2cnc3c2c(=O)n(C)c(=O)n3C)c1`, the “activation” value was inactive: -17.7%. In the case of `O=C(Nc1cccc(Cl)c1)c1c(NC(=O)C(F)(F)F)sc2c1CCCC2`, the “activation” value is inactive: -16.3%.

As for `CCN(CC)c1ccc(NC(=O)C(Cc2ccccc2)NS(=O)(=O)c2ccc(Br)s2)c(C)c1` (centres undefined), the “activation” value is inactive: -12.8%. For `COc1ccccc1N1CCN(C(=O)Cn2ncc3c(=O)oc4ccccc4c32)CC1`, the “activation” value is inactive: 0.947%. As for `C[C@]12CCC(=O)C=C1CC[C@@H]1[C@@H]2[C@@H](O)C[C@@]2(C)[C@H]1CC[C@]2(O)C(=O)COC(=O)CCC(=O)O`, the figure is inactive: -8.97%; as for `CCOc1ccccc1N(C)C(=O)Cn1cnc2sc(C)c(S(=O)(=O)N3CCC(C)CC3)c2c1=O`, inactive: -7.37%; as for `COc1ccc(S(=O)(=O)N(CC(=O)NCc2ccccc2OC)c2ccc(C)cc2)cc1`, inactive: -11.8%.

`CC(C)(C)NC[C@H](O)COc1nsnc1N1CCOCC1`: the “activation” value is inactive: -5.41%. As for `COc1cc(OC)c(NC(=O)COCc2cc(-c3cccs3)on2)cc1Cl`, the figure is inactive: -15%; as for `COc1ccc(CCNCc2c(C(=O)O)c(C)n(Cc3ccccc3C)c2C)c(OC)c1`, inactive: -12.3%. For the compound `O=C(Cn1c(=O)n(Cc2ccco2)c(=O)c2oc3ccccc3c21)Nc1ccc(F)cc1F`, the “activation” value was inactive: -13.1%. Consider `Cc1cn2c(=O)cc(COc3ccc(NC(=O)c4cccc(F)c4)cc3)nc2s1`, for which the “activation” value was inactive: 4.27%. Then `Cc1nn(CCCC(=O)Nc2ccccc2C(F)(F)F)c(=O)c2c1sc1ccccc12`, with inactive: -7.07%.

Take `CN(C)CCN(Cc1ccco1)S(=O)(=O)c1cc2c(cc1Cl)NC(=O)CO2`: the “activation” value was inactive: -9.03%. Take `COc1ccccc1CCNC(=O)CCc1c(C)c2cc3c(C)coc3c(C)c2oc1=O`: the “activation” value was inactive: -8.73%. Consider `O=C(NCCO)C(=O)Nc1c2c(nn1-c1ccc(F)cc1)CSC2`, for which the “activation” value is inactive: -5.04%. As for `Cn1c(=O)n(C)c2cc(NS(=O)(=O)c3ccccc3)c(NCc3ccccc3)cc21`, the figure is inactive: -15.2%.

On to `COc1cccc(NC(=O)Nc2cc(-c3cn4cccnc4n3)ccc2C)c1`, for which the “activation” value is inactive: -13.1%. As for `CCC(Sc1nnc(C)n2c1cc1occc12)C(=O)Nc1ccccc1F` (centres undefined), the figure is inactive: -9.01%; as for `CCN(CC)C(=O)Cn1cc(SCC(=O)Nc2cccc(C)c2)c2ccccc21`, inactive: -17%; as for `COCc1cc(C)n(CC(=O)Nc2ccc(NC(C)=O)cc2)c(=O)c1C#N`, inactive: -16.8%. With `CC(C)OCCCN(Cc1ccco1)C(=O)c1cc2c(s1)-c1ccccc1OC2`, the “activation” value was inactive: -9.22%. As for `CC(C)Oc1ccc(CNC(=O)C2CCN(C(=O)c3sccc3-n3cccc3)CC2)cc1`, the figure is inactive: -11%; as for `COc1ccccc1CNC(=O)CN1C(=O)CSc2ccc(S(=O)(=O)N3CCCC3)cc21`, inactive: -20.6%. Then `Cc1ccc(-c2noc(CNC(=O)c3ccc(C(C)(C)C)cc3)n2)cc1`, with inactive: -11.3%. Consider `Cc1ccc(Cl)cc1NC(=O)N1CCN(C)c2ncccc21`, for which the “activation” value was inactive: -12.4%. As for `Cc1cccc(C(=O)N2CCc3cc(CNC(=O)CCc4ccccc4)ccc32)c1`, the figure is inactive: -6.59%.

Turning to `COc1ccc(N2CCN(c3cc(C)nc4nc(-c5ccc(C)cc5)nn34)CC2)cc1`, the “activation” value is inactive: -3.77%. As for `CC1=C(C#N)C(NC(=O)c2cccc(Cl)c2)(C(F)(F)F)C(=O)N1` (centres undefined), the figure is inactive: -10.5%; as for `Cc1cccc(C)c1-n1ncc(C(=O)Nc2ccc3c(c2)OCCO3)c1C1CCN(C(=O)OC(C)(C)C)CC1`, inactive: -36.6%; as for `COc1ccc(Nc2c(-c3cc(Br)ccc3O)nc3ncccn23)cc1OC`, inactive: -13.2%.

On to `CCc1cc2c(cc3c(=O)n(CC(=O)N4CCN(c5cc(Cl)ccc5C)CC4)ncn32)s1`, for which the “activation” value was inactive: -8.79%. As for `O=C(CSc1ncc2c(n1)-c1ccccc1N(Cc1ccc(F)cc1)S2(=O)=O)c1ccc(Cl)cc1`, the figure is inactive: -2.89%.

Turning to `CCOCCOC(=O)c1ccc(NC(=O)/C=C/c2ccc(OC)c(OC)c2)cc1`, the “activation” value is inactive: -14%.

As to `Cc1ccc(S(=O)(=O)c2cn(C)c3cc(N4CCN(C)CC4)c(F)cc3c2=O)cc1`, the “activation” value was inactive: -4.05%.

As to `CNS(=O)(=O)c1ccc(OC)c(-c2nnc3c4ccccc4c(C)nn23)c1`, the “activation” value was inactive: -13.8%. Take `COc1ccccc1N1CCN(S(=O)(=O)c2c(C)sc3ncn(CC(=O)N(C)c4ccc(C(C)C)cc4)c(=O)c23)CC1`: the “activation” value is inactive: -9.98%. On to `Cc1ccc(NCc2cccn2-c2nnc(N3CCC(C(=O)NCc4ccc(OC(C)C)cc4)CC3)s2)cc1`, for which the “activation” value is inactive: -10.2%. Take `COc1ccc(OC)c(C2CC(=O)c3c([nH]c(C(=O)OC4CCC(C)CC4)c3C)C2)c1` (centres undefined): the “activation” value is inactive: -4.62%. Then `CN1CCN(CCCNC(=O)Cn2c(-c3cccs3)cc3ccccc32)CC1`, with inactive: -4.46%; and `Cc1ccc2c(c1)sc1nc(=O)n(-c3ccc(Cl)cc3)c(=O)n12`, with inactive: -19.1%; and `CCOC(=O)c1noc2ncnc(N(CCC(=O)OC)c3ccccc3)c12`, with inactive: -2.33%. Then `CCOC(=O)c1noc2ncnc(Nc3ccc(C)c(F)c3)c12`, with inactive: -12.5%. With `Cc1ccc(-c2cc(N)n3nc(-c4ccc(C)cc4)cc3n2)cc1`, the “activation” value was inactive: -4.61%.

Source of the values: PubChem BioAssay AID1159614 (National Center for Advancing Translational Sciences (NCATS), 2016).
